Reference: PubChem BioAssay AID504832 (National Center for Advancing Translational Sciences (NCATS), 2011)
The whole screen tested about 310,000 compounds, of which about 18,000 (5.8%) were called active. The shares of active, inactive and inconclusive entries below differ from those in the screen. The call rests on the fitted dose curve; in most records, active means well fitted inhibition curve with a large enough effect; inconclusive means small, poorly fitted or top-dose-only effect, or another doubt; inactive means no such curve, though single readings can be large or run the other way. No potency is given beside an inconclusive call; the fits are too rough.

Experiment: Primary qHTS for delayed death inhibitors of the malarial parasite plastid, 48 hour incubation
Details: P. falciparum luciferase growth in erythrocytes; series mostly up to 28.7 µM
Procedure, shortened: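 Cell-based growth assay: transgenic P. falciparum expressing firefly luciferase, cultured in red cells within RPMI 1640 containing 0.5% w/v Albumax, 24 mM bicarbonate and gentamycin. A drop in luciferase activity indicates inhibition.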
Potency means the concentration at half of the fitted maximal effect; tags describe the fitted curve by direction and shape.

| Compound | Potency |
| --- | --- |
| COc1ccccc1CN1CCCC(CNC(=O)c2cccc3ccccc23)C1 (configuration not stated) | inconclusive [inhibitor, full curve] |
| O=C(O)CCc1nn2cc(-c3ccccc3)nc2[nH]c1=O | inconclusive [inhibitor, single point] |
| Cc1cccc(S(=O)(=O)N2CCC(CO)(Cc3ccccc3)CC2)c1 | inconclusive [inhibitor, single point] |
| CSc1nnc(C2CCN(CC(=O)Nc3ccccc3N3CCOCC3)CC2)n1C(C)C | inconclusive [inhibitor, single point] |
| C(=C\c1ccccc1)/CN1CCN(C(c2ccccc2)c2ccccc2)CC1 | inactive |
| CC(C)C[C@H](NC(=O)c1nc[nH]c1C(=O)N[C@@H](CC(C)C)C(=O)OC(C)(C)C)C(=O)OCc1ccccc1 | inconclusive [inhibitor, full curve, poor fit] |
| COCCCn1c(=NC(=O)c2ccc3c(c2)OCO3)c(C#N)cc2c(=O)n3cccc(C)c3nc21 | inconclusive [inhibitor, full curve] |
| Cc1ccc(C(C)(C)C)c(OCCCn2ccnc2)c1 | inconclusive [inhibitor, single point] |
| COc1ccc(NC(=S)NNC(=O)c2cccs2)cc1 | inactive |
| COc1cccc(OCCNc2cc(N3CCCCC3)ccc2[N+](=O)[O-])c1 | inconclusive [inhibitor, partial curve, poor fit] |
| COc1ccccc1C(=O)NCCCNC(=O)c1cnccn1 | inactive |
| Cc1nc(/C(N)=N/OC(=O)c2c(-c3ccccc3Cl)noc2C)cs1 | inconclusive [inhibitor, single point] |
| C=CCOC(=O)C1=C(C)NC(SCC(=O)Nc2nccs2)=C(C#N)C1c1ccc(Cl)cc1 (configuration not stated) | active: 2.08 µM |
| O=C(NCCc1c[nH]c2ccccc12)C(=O)Nc1cc2c3c(c1)CC(=O)N3CCC2 | active: 1.04 µM |
| COc1cc(CN2CCCC(C(=O)c3sccc3C)C2)cc(Cl)c1O (configuration not stated) | inconclusive [inhibitor, single point] |
| CC(C)c1ccccc1NC(=O)C1CC(=O)N(C2CCCC2)C1 (configuration not stated) | inactive |
| CCCCCCn1c(O)c(C=NCCN2CCOCC2)c(=O)[nH]c1=O | inactive |
| Cc1cc(C)c2cc(CNC3CCCC3)c(Cl)nc2c1 | inconclusive [inhibitor, single point] |
| COc1cc(O)c(C(CC(=O)N2CCCC2)c2ccc(N(C)C)cc2)c(OC)c1 (configuration not stated) | inconclusive [inhibitor, single point] |
| O=C(c1cccc(S(=O)(=O)N2CCN(c3ccccc3)CC2)c1)N1CCCCCCC1 | inconclusive [inhibitor, single point] |
| Cc1cc(NC(=O)CN2C(=O)[C@@H]3[C@H](C2=O)[C@@H]2C[C@H]3C(Br)C2Br)no1 (some centres not stated) | inactive |

| Compound | Potency |
| --- | --- |
| CCNc1nc(NCC)n2c(SC(C(=O)Nc3cc(Cl)cc(Cl)c3)c3ccccc3)nnc2n1 (configuration not stated) | inactive |
| CC(=O)N1CCN(c2ccc(NC(=O)COc3ccc(Cl)cc3Cl)cc2)CC1 | inconclusive [inhibitor, partial curve, poor fit] |
| Cc1ccc2c(c1)c(N=NC(N)=S)c(O)n2Cc1ccccc1 | inactive |
| NNc1nc2cccnc2n(CCNc2ncc(C(F)(F)F)cc2Cl)c1=O | inconclusive [inhibitor, partial curve] |
| CCN(Cc1cc2cc(C)ccc2[nH]c1=O)C(=O)c1cccc(OC)c1 | inconclusive [inhibitor, partial curve] |
| O=C(CN1C(=O)NC2(CCCCCC2)C1=O)c1ccc(OC(F)F)cc1OC(F)F | inconclusive [inhibitor, single point] |
| CCC(C)NC(=S)Nc1ccc2nc(N3CCN(CC)CC3)cc(C)c2c1 (configuration not stated) | inactive |
| CC(=O)N1c2c(cc(Br)cc2S(=O)(=O)Nc2c(C)n(C)n(-c3ccccc3)c2=O)CC1C (configuration not stated) | inactive |
| COc1ccc(OC)c(NC(=O)CSc2nnc(-c3ccco3)n2-c2ccccc2)c1 | inconclusive [inhibitor, single point] |
| COc1ccc(O)c(CN2CCC(n3nccc3NC(=O)c3ccccc3Cl)CC2)c1 | inconclusive [inhibitor, full curve] |
| O=C(CN(Cc1ccco1)C(=O)c1ccc([N+](=O)[O-])cc1)Nc1ccccc1C(F)(F)F | inconclusive [inhibitor, single point] |
| Cc1ccc(S(=O)(=O)N2CCC(n3nnc4cc(C)ccc43)CC2)cc1 | inconclusive [inhibitor, single point] |
| CC1CCN(C(=O)CSc2nnc(CNc3ccc(F)cc3)n2Cc2ccco2)CC1 | inconclusive [inhibitor, full curve, poor fit] |
| CC1CCc2nc(/C(C#N)=C/c3ccncc3)sc2C1 (configuration not stated) | inconclusive [inhibitor, single point] |
| Cc1cc(C)n(-c2cc(N3CCN(S(=O)(=O)c4ccc(Cl)cc4)CC3)ccc2[N+](=O)[O-])n1 | active: 7.38 µM |
| COc1cc(OC)cc(C(=O)O/N=C(\N)c2cccc(C)c2)c1 | inconclusive [inhibitor, single point] |
| C[C@@H](NC(=O)c1[nH]cnc1C(=O)Nc1cccc(Cl)c1)c1ccccc1 | inconclusive [inhibitor, single point] |
| CCCN(CCC)CCNC(=O)C1CCCN(S(=O)(=O)c2ccc3c(c2)oc(=O)n3C)C1 (configuration not stated) | inconclusive [inhibitor, partial curve] |
| Cc1ccccc1C(=O)NC1CCN(Cc2nnnn2Cc2ccc(F)cc2)CC1 | inconclusive [inhibitor, partial curve, poor fit] |
| CC(NC(=O)CCCc1c[nH]c2ccccc12)c1ccc(F)cc1 (configuration not stated) | inconclusive [inhibitor, partial curve, poor fit] |
| CCN(CC)c1nc2c(c(=O)n(C)c(=O)n2C)n1CCCc1ccccc1 | inconclusive [inhibitor, single point] |
